Measured values from patent publication US20240254252A1 (Genmab, published 2024).
Where two headings read alike, the source gives them in different places.

Assays:
Experiment in all cases: cell-based or functional assay
[1] = target: T1, human CD38 expressed on the cell surface (human, UniProt P28907 1-300)
[2] = target: T1, human CD38 expressed on the cell surface; remark: listed apart in the source
[3] = target: T1, human CD38 expressed on the cell surface; remark: listed apart in the source

B1: IgG1-C (antibody)
heavy: QVQLVQSGAEVKKPGSSVKVSCKAFGGTFSSYAISWVRQAPGQGLEWMGRIIRFLGIANYAQKFQGRVTLIADKSTNTAYMELSSLRSEDTAVYYCAGEPGERDPDAVDIWGQGTMVTVSSASTKGPSVFPLAPSSKSTSGGTAALGCLVKDYFPEPVTVSWNSGALTSGVHTFPAVLQSSGLYSLSSVVTVPSSSLGTQTYICNVNHKPSNTKVDKRV[not shown - human IgG1 Fc]
light: [not shown - about 200 residues]
percent lysis (CDC, Ramos and Daudi cells) [1]: ~50% | EC50 of lysis (CDC, Daudi cells) [2]: 0.25 µg/mL | EC50 of lysis (CDC, Ramos cells) [2]: 0.158 µg/mL | EC50 of lysis (CDC, Wien-133 cells) [2]: 0.193 µg/mL

B2: IgG1-C-E430G (antibody)
heavy: QVQLVQSGAEVKKPGSSVKVSCKAFGGTFSSYAISWVRQAPGQGLEWMGRIIRFLGIANYAQKFQGRVTLIADKSTNTAYMELSSLRSEDTAVYYCAGEPGERDPDAVDIWGQGTMVTVSSASTKGPSVFPLAPSSKSTSGGTAALGCLVKDYFPEPVTVSWNSGALTSGVHTFPAVLQSSGLYSLSSVVTVPSSSLGTQTYICNVNHKPSNTKVDKRV[not shown - human IgG1 Fc with E430G (EU numbers)]
light: [not shown - about 200 residues]
notes: also called E430G mutated C; IgG-C-E430G
percent lysis (CDC, Ramos and Daudi cells) [1]: ≤ 100% | EC50 of lysis (CDC, 697 cells) [3]: 0.087 µg/mL | EC50 of lysis (CDC, AML-193 cells) [3]: 0.032 µg/mL | EC50 of lysis (CDC, DOHH2 cells) [3]: 0.115 µg/mL | EC50 of lysis (CDC, Daudi cells) [3]: 0.03 µg/mL | EC50 of lysis (CDC, HL-60 cells) [3]: 0.07 µg/mL | EC50 of lysis (CDC, JVM-3 cells) [3]: 0.11 µg/mL | EC50 of lysis (CDC, JVM-13 cells) [3]: 0.146 µg/mL | EC50 of lysis (CDC, Jeko-1 cells) [3]: 0.108 µg/mL | EC50 of lysis (CDC, KG-1 cells) [3]: 0.104 µg/mL | EC50 of lysis (CDC, MEGAL cells) [3]: 0.17 µg/mL | EC50 of lysis (CDC, ML-2 cells) [3]: 0.023 µg/mL | EC50 of lysis (CDC, MOLM-13 cells) [3]: 0.017 µg/mL | EC50 of lysis (CDC, NALM-16 cells) [3]: 0.022 µg/mL | EC50 of lysis (CDC, Nomo-1 cells) [3]: 0.039 µg/mL | EC50 of lysis (CDC, Oci-AML3 cells) [3]: 0.046 µg/mL | EC50 of lysis (CDC, Oci-Ly18 cells) [3]: 0.057 µg/mL | EC50 of lysis (CDC, Oci-Ly-7 cells) [3]: 0.012 µg/mL | EC50 of lysis (CDC, Oci-Ly-19 cells) [3]: 0.031 µg/mL | EC50 of lysis (CDC, REH cells) [3]: 0.039 µg/mL | EC50 of lysis (CDC, RS4;11 cells) [3]: 0.093 µg/mL | EC50 of lysis (CDC, Raji cells) [3]: 0.036 µg/mL | EC50 of lysis (CDC, Ramos cells) [3]: 0.013 µg/mL | EC50 of lysis (CDC, SU-DHL-4 cells) [3]: 0.073 µg/mL | EC50 of lysis (CDC, SU-DHL-8 cells) [3]: 0.009 µg/mL | EC50 of lysis (CDC, THP-1 cells) [3]: 0.075 µg/mL | EC50 of lysis (CDC, U266 cells) [3]: 0.052 µg/mL | EC50 of lysis (CDC, U937 cells) [3]: 0.057 µg/mL | EC50 of lysis (CDC, WSU-DLCL2 cells) [3]: 0.345 µg/mL | EC50 of lysis (CDC, Wien133 cells) [3]: 0.015 µg/mL | EC50 of lysis (CDC, Z-138 cells) [3]: 0.106 µg/mL | EC50 of lysis (CDC, monomac6 cells) [3]: 0.093 µg/mL | EC50 of lysis (CDC, Daudi cells) [2]: 0.019 µg/mL | EC50 of lysis (CDC, NALM-16 cells) [2]: 0.022 µg/mL | EC50 of lysis (CDC, REH cells) [2]: 0.017 µg/mL | EC50 of lysis (CDC, RS4;11 cells) [2]: 0.056 µg/mL | EC50 of lysis (CDC, Ramos cells) [2]: 0.014 µg/mL | EC50 of lysis (CDC, U266 cells) [2]: 0.052 µg/mL | EC50 of lysis (CDC, Wien-133 cells) [2]: 0.015 µg/mL
